Results as given in PubChem BioAssay AID588855 (National Center for Advancing Translational Sciences (NCATS), 2011).
Several values for one entry are separate records, joined by “and”; a condition that tells them apart may be missing. Identical values can stand only once. The whole screen tested about 410,000 compounds, of which about 5,000 (1.2%) were called active. Inconclusive means that the source gave no clear call. Such entries were picked first, then a sample of the others. The call rests on the fitted dose curve; in most records, active means well fitted inhibition curve with a large enough effect; inconclusive means small, poorly fitted or top-dose-only effect; inactive means no such curve, though single readings can be large or run the other way. Potencies of inconclusive entries are doubtful fits and often do not repeat.

Experiment: qHTS for Inhibitors of TGF-b; further: nearly all actives have a fitted effect of over 65% in size
Details: HepG2 CAGA-GFP TGF-b/SMAD3 reporter, GFP fluorescence, 18 h, TGF-beta stimulated, 500 pg/mL final; series mostly up to 46.1 µM
In short: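 Inhibition was scored as loss of TGF-beta-induced (500 pg/mL final, 18 hours, 37 degrees C) GFP in HEPG2 cells carrying a CAGA-GFP reporter, in DMEM with 1% FBS. Well GFP was summed per cell; Activity was normalised to unstimulated and stimulated DMSO wells, then concentration-response fitting.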
Potency means the concentration at half of the fitted maximal effect; tags describe the fitted curve by direction and shape.

Question: For `CCOc1ccccc1NC(=O)Cn1nnc(C(=O)NCc2ccco2)c1N`, which Potency is on record?
Answer: inconclusive: 2 µM [inhibitor, full curve]

Question: With `Cc1cccc(N2CCN(C(=O)C3CCCN(S(=O)(=O)c4ccc(Br)s4)C3)CC2)c1C` (centres undefined) as the compound, how does the Potency read?
Answer: inconclusive: 2.82 µM [inhibitor, full curve, poor fit]

Question: Which Potency does the source give for `CCOC(=O)C1CCC(CN(Cc2ccc(Cl)cc2)S(=O)(=O)c2cc(Cl)cc(Cl)c2)CC1` (centres undefined) here?
Answer: inactive

Question: For `COc1ccc(C2CC(c3ccccc3)=NN2C(=O)COC(=O)c2cccc(O)c2)cc1` (centres undefined), which Potency is on record?
Answer: inconclusive: 22.4 µM [inhibitor, single point]

Question: With `Cc1cc(C)cc(NC(=O)CSCc2cnn(-c3ccccc3)c2-n2cccc2)c1` as the compound, how does the Potency read?
Answer: inconclusive: 20 µM [inhibitor, partial curve, poor fit]

Question: For `O=C(NC(=S)Nc1cccc(NC(=O)c2ccc(Cl)cc2Cl)c1)c1cccs1`, which Potency is on record?
Answer: inconclusive: 3.55 µM [inhibitor, single point]

Question: For `CCOc1ccc(CCNC(=O)c2nc(-c3cccc(F)c3)n3c2CCCCC3)cc1OCC`, which Potency is on record?
Answer: inconclusive: 25.1 µM [inhibitor, single point]

Question: For `NS(=O)(=O)c1ccc(CCNC(=O)c2ccc(Cl)s2)cc1`, which Potency is on record?
Answer: inactive

Question: For `CC(C)c1nc2ccc(C(=O)NCCCN3CCN(c4cccc(Cl)c4)CC3)cc2o1`, which Potency is on record?
Answer: inconclusive: 10 µM [inhibitor, partial curve, poor fit]

Question: With `COc1ccc(NC(=O)Cn2c(=O)n(-c3ccc(OC)cc3OC)c(=O)c3c(C)c(C)sc32)cc1` as the compound, how does the Potency read?
Answer: inconclusive: 17.8 µM [inhibitor, single point]

Question: With `Cc1ccc(/C=C2\SC(N3CCN(C(c4ccccc4)c4ccccc4)CC3)=NC2=O)o1` as the compound, how does the Potency read?
Answer: inconclusive: 35.5 µM [inhibitor, single point]

Question: Which Potency does the source give for `COc1ccc2nc(COC(=O)c3ccco3)c(C(C)=O)[n+]([O-])c2c1` here?
Answer: inconclusive: 15.8 µM [inhibitor, single point]

Question: With `CCOC(=O)N1CCN(Cc2nc3cc([N+](=O)[O-])ccc3n2C(C)C)CC1` as the compound, how does the Potency read?
Answer: inactive

Question: Which Potency does the source give for `CC(C)(C)c1nc(Sc2ccc([N+](=O)[O-])cn2)n[nH]1` here?
Answer: inactive

Question: For `COc1cccc(CN2CCC2(C)C(=O)Nc2ccc(C)c(O)c2)c1F` (centres undefined), which Potency is on record?
Answer: inactive

Question: For `CC(C)(C)NC(=O)C[C@H]1C[C@H](C(=O)N2CCCCC2)[C@@]2(CCc3ccccc3)c3[nH]c4cc(-c5ccco5)ccc4c3CCN2C1=O`, which Potency is on record?
Answer: inconclusive: 22.4 µM [inhibitor, single point]

Question: Which Potency does the source give for `Cc1cc(=O)n2c3ccccc3n(CC(O)CN3CCN(CCO)CC3)c2c1C#N` (centres undefined) here?
Answer: inactive

Question: Which Potency does the source give for `CN(c1ccc(/C=C/c2ccccc2)cc1)P1(=O)NCCCO1` (centres undefined) here?
Answer: inactive

Question: With `Cn1cc(C(=O)N/N=C/C(Br)=C/c2ccccc2)ccc1=O` as the compound, how does the Potency read?
Answer: inconclusive: 35.5 µM [inhibitor, single point]

Question: With `Cc1cc(C(=O)Nc2ccccc2C(=O)O)ccc1NC(=O)COc1cccc(C)c1C` as the compound, how does the Potency read?
Answer: inactive

Question: For `CN1CCN(c2ncnc3c2c(-c2ccccc2)cn3-c2ccc(F)cc2)CC1`, which Potency is on record?
Answer: inconclusive: 25.1 µM [inhibitor, single point]

Question: With `Cc1cc(C(O)c2ncc(-c3ccc(Oc4ccccc4)cc3)[nH]2)ccc1F` (centres undefined) as the compound, how does the Potency read?
Answer: inconclusive: 35.5 µM [inhibitor, single point]

Question: With `O=C(CCC1CCN(C(=O)c2cc(C(F)(F)F)ccc2Cl)CC1)NC1CC1` as the compound, how does the Potency read?
Answer: inactive

Question: Which Potency does the source give for `O=C(/C=C/c1ccco1)N/C(=C\c1ccco1)C(=O)NCCc1nc2ccccc2[nH]1` here?
Answer: inactive

Question: For `CCc1cc2c(=O)oc(-c3ccc(Br)cc3)nc2s1`, which Potency is on record?
Answer: inactive

Question: For `FC(F)(F)c1ccc2c3n(nc2c1)CCN=C3c1ccc(Cl)cc1`, which Potency is on record?
Answer: inconclusive: 5.62 µM [inhibitor, single point]

Question: With `COc1cc(SC)ccc1C(=O)N1CCc2ccccc21` as the compound, how does the Potency read?
Answer: inactive

Question: With `CSCCC(c1nnnn1-c1c(C)cccc1C)N1CCN(C/C=C/c2ccccc2)CC1` (centres undefined) as the compound, how does the Potency read?
Answer: inconclusive: 35.5 µM [inhibitor, single point]

Question: For `COc1cccc(-c2cc(C(=O)NCc3ccco3)c3ccccc3n2)c1`, which Potency is on record?
Answer: inactive

Question: For `COc1ccc(OC)c(/C(O)=C/C(=O)C(=O)Nc2cc(C)cc(C)c2)c1`, which Potency is on record?
Answer: inactive

Question: With `O=[N+]([O-])c1ccc(Sc2nccn2Cc2ccccc2)c([N+](=O)[O-])c1` as the compound, how does the Potency read?
Answer: inconclusive: 35.5 µM [inhibitor, partial curve, poor fit]

Question: For `Cc1cc(C)nc(SCc2c(F)cccc2Cl)n1`, which Potency is on record?
Answer: inactive

Question: With `COc1ccc(/C=C/C(=O)N2CCCc3ccccc32)c(OC)c1` as the compound, how does the Potency read?
Answer: inactive

Question: For `COc1ccc(NC(=O)C(C)NS(=O)(=O)c2ccccc2)cc1Cl` (centres undefined), which Potency is on record?
Answer: inconclusive: 35.5 µM [inhibitor, single point]

Question: For `O=C(NN1C(=O)C2C(c3ccccc3)C=CC(c3ccccc3)C2C1=O)c1cccc(Br)c1` (centres undefined), which Potency is on record?
Answer: inconclusive: 35.5 µM [inhibitor, partial curve, poor fit]

Question: With `CC1Nc2ncnc(N3CCc4ccccc4C3)c2N(Cc2ccc(Br)cc2)C1=O` (centres undefined) as the compound, how does the Potency read?
Answer: inconclusive: 20 µM [inhibitor, single point] and inconclusive: 22.4 µM [inhibitor, single point]

Question: Which Potency does the source give for `CCO[C@H]1OC(C(=O)Nc2ccccc2)=C[C@@H](c2ccc(Br)cc2)[C@@H]1CCCO` here?
Answer: inconclusive: 35.5 µM [inhibitor, partial curve, poor fit]

Question: With `COc1cccc(-c2cc(C(=O)NCCCn3ccnc3)c3ccccc3n2)c1` as the compound, how does the Potency read?
Answer: inconclusive: 3.98 µM [inhibitor, single point]

Question: With `COC(=O)c1cccc(S(=O)(=O)N2CCN(c3nc4ccccc4s3)CC2)c1` as the compound, how does the Potency read?
Answer: inactive

Question: With `CC(=O)c1c(C)[nH]c(C(=O)Nc2cccc(S(=O)(=O)N(C)C)c2)c1C` as the compound, how does the Potency read?
Answer: inactive

Question: With `Cc1ccc(C)c(CNC(=O)Nc2ccccc2)c1` as the compound, how does the Potency read?
Answer: inactive

Question: For `Cn1cnnc1SCC(=O)c1ccco1`, which Potency is on record?
Answer: inactive

Question: Which Potency does the source give for `COc1ccc(C#Cc2cccc(-c3nc(C(=O)NCc4ccc(Oc5ccccc5)cc4)cc4c3[C@@H](CCO)N(S(=O)C(C)(C)C)C4)c2)cc1OC` (some centres undefined) here?
Answer: inconclusive: 35.5 µM [inhibitor, single point]

Question: For `COC(=O)CSc1nnc(-c2ccc(NS(=O)(=O)c3ccccc3)cc2)o1`, which Potency is on record?
Answer: inconclusive: 35.5 µM [inhibitor, single point]
